Reference: publication PMC7519094
Results are given in words; binding and its absence hold for the method and conditions named. Binding seen in cells or lysates may run through a third protein. Some results given as binding are weak or reduced against the parent protein; the word gives no strength. Where a sequence is shown, tags or fusion partners need not be part of it. Blank lines part the entries; values can stand above or below the binder they belong to.

What was measured:
[1] = target: T1, MEKK2-FLAG (Arabidopsis thaliana) (UniProt O81472); test: co-IP; tagged proteins co-expressed in Arabidopsis protoplasts; lysate in 100 mM NaCl, 10 mM HEPES pH 7.5, 0.5% Triton X-100; precipitated with α-FLAG affinity beads at 4 °C for 2 h; immunoblot with α-HA and α-FLAG
T1 sequence: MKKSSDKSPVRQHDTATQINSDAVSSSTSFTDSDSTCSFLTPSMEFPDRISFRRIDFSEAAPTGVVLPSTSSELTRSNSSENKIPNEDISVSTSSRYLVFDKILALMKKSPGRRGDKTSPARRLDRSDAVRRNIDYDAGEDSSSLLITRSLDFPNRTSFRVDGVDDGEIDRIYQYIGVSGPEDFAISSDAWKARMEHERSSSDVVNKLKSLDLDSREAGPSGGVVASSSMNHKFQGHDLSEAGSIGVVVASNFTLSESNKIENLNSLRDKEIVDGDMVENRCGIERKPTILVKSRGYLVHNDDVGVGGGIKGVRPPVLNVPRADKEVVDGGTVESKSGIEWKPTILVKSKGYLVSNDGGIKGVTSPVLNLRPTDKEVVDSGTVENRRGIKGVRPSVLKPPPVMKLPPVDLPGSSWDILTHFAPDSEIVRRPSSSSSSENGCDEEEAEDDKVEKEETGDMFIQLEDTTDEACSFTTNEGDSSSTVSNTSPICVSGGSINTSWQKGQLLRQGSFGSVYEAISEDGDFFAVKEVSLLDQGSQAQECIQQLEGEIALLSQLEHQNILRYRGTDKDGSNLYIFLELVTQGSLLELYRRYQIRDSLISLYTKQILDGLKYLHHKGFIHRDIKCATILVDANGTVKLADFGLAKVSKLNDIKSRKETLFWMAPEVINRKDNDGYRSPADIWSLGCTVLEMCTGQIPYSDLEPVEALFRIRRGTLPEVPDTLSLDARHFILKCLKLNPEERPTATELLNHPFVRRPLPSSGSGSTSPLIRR

[2] = target: T2, SUMM2-FLAG (Arabidopsis thaliana) (UniProt P60838); test: as above
T2 sequence: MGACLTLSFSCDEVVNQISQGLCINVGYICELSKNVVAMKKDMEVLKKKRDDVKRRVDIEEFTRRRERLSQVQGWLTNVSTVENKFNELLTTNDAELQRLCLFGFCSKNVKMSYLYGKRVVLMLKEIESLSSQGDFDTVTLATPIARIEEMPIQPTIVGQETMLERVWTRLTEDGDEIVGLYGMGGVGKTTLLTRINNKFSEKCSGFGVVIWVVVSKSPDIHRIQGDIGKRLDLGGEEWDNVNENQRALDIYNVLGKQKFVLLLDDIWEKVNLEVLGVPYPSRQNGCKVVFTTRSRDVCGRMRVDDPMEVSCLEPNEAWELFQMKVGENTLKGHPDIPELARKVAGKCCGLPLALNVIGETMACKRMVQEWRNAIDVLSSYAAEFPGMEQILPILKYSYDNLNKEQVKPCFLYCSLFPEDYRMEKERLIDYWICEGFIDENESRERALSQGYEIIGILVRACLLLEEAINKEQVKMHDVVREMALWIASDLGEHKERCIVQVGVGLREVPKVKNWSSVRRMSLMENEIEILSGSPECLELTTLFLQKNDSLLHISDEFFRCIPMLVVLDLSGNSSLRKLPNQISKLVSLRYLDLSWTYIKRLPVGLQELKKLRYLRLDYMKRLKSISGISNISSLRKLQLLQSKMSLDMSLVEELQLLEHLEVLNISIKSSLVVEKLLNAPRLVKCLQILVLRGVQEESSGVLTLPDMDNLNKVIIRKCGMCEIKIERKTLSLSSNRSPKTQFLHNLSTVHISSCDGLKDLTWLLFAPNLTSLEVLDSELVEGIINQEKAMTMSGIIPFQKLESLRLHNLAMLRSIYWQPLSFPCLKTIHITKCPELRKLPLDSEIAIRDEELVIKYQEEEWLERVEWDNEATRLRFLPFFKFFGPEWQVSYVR

[3] = target: T3, LET2-FLAG (C-terminal FLAG-tagged LET2/MDS1) (Arabidopsis thaliana) (UniProt Q9FID9); test: as above
T3 sequence: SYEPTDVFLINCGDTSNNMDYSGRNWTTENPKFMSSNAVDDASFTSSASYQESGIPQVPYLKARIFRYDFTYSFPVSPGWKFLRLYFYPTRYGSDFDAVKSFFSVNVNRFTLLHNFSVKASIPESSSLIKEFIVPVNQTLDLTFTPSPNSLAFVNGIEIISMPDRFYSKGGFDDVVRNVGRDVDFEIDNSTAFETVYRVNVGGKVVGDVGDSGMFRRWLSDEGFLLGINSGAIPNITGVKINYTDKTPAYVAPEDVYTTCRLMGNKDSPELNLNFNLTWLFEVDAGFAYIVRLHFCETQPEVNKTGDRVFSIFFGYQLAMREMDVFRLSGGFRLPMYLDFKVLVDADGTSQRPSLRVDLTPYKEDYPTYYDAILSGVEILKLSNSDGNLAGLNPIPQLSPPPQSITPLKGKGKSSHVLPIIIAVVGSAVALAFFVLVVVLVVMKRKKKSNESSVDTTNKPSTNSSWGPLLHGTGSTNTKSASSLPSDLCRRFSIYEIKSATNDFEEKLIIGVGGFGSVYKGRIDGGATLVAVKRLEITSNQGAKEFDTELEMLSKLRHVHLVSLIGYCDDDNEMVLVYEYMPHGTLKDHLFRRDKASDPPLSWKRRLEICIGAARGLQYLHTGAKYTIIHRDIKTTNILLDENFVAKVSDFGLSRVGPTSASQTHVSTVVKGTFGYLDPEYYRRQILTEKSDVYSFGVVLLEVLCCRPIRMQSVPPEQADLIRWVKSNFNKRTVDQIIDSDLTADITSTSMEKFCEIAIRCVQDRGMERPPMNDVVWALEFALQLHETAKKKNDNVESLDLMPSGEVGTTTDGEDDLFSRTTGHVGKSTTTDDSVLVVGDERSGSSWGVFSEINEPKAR

[4] = target: T4, HIS-SUMO-LET2^ex (LET2/MDS1 extracellular domain) (Arabidopsis thaliana) (UniProt Q9FID9); test: pull-down; about 10 μg purified HIS-SUMO-LET2^ex mixed with LET1-FLAG protoplast lysate in IP buffer (10 mM HEPES pH 7.5, 100 mM NaCl, 10% glycerol, 0.5% Triton X-100) at 4 °C; Ni-NTA agarose; α-FLAG immunoblot; only the target purified
T4 sequence: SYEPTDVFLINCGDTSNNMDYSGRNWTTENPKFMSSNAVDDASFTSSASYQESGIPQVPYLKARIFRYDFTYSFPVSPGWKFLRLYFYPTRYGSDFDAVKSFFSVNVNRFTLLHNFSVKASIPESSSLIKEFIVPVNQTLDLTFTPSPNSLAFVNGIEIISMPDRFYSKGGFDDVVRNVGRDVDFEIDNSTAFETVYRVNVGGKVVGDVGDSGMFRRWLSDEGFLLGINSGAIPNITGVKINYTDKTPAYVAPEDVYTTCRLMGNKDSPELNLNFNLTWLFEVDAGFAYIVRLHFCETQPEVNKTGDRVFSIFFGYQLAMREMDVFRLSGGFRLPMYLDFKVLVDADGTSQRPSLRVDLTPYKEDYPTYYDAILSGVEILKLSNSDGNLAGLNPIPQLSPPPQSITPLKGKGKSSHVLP

binding [1]: binds | binding [2]: binds
B1: LET2-HA (LETUM2/MEDOS1, C-terminal HA tag) (receptor, UniProt Q9FID9 22-880)
chain: SYEPTDVFLINCGDTSNNMDYSGRNWTTENPKFMSSNAVDDASFTSSASYQESGIPQVPYLKARIFRYDFTYSFPVSPGWKFLRLYFYPTRYGSDFDAVKSFFSVNVNRFTLLHNFSVKASIPESSSLIKEFIVPVNQTLDLTFTPSPNSLAFVNGIEIISMPDRFYSKGGFDDVVRNVGRDVDFEIDNSTAFETVYRVNVGGKVVGDVGDSGMFRRWLSDEGFLLGINSGAIPNITGVKINYTDKTPAYVAPEDVYTTCRLMGNKDSPELNLNFNLTWLFEVDAGFAYIVRLHFCETQPEVNKTGDRVFSIFFGYQLAMREMDVFRLSGGFRLPMYLDFKVLVDADGTSQRPSLRVDLTPYKEDYPTYYDAILSGVEILKLSNSDGNLAGLNPIPQLSPPPQSITPLKGKGKSSHVLPIIIAVVGSAVALAFFVLVVVLVVMKRKKKSNESSVDTTNKPSTNSSWGPLLHGTGSTNTKSASSLPSDLCRRFSIYEIKSATNDFEEKLIIGVGGFGSVYKGRIDGGATLVAVKRLEITSNQGAKEFDTELEMLSKLRHVHLVSLIGYCDDDNEMVLVYEYMPHGTLKDHLFRRDKASDPPLSWKRRLEICIGAARGLQYLHTGAKYTIIHRDIKTTNILLDENFVAKVSDFGLSRVGPTSASQTHVSTVVKGTFGYLDPEYYRRQILTEKSDVYSFGVVLLEVLCCRPIRMQSVPPEQADLIRWVKSNFNKRTVDQIIDSDLTADITSTSMEKFCEIAIRCVQDRGMERPPMNDVVWALEFALQLHETAKKKNDNVESLDLMPSGEVGTTTDGEDDLFSRTTGHVGKSTTTDDSVLVVGDERSGSSWGVFSEINEPKAR

binding [3]: binds
B2: LET1-HA (receptor, UniProt O22187 29-834)
chain: DTSTYTRPENFYVNCGSDSNVFYGGQTFVGDTNSSTNSVSFTNKGTEVINDQSSVAPEIYRTVRIFRHPSSYKFKLDSLGLHFVRLHFSVVFSRADLLTARFTVSATSGSNHHLKSFSPQNLTNTPRVEEFLLMMNSLEFEIRFVPDHSSLALINAIEVFSAPDDLEIPSASDKNLHTIYRLNVGGEKITPDNDTLGRTWLPDDDDFLYRKDSARNINSTQTPNYVGGLSSATDSTAPDFVYKTAKAMNRSSNEQVGMLMNVTWSFKVKSNHRHFIRIHFSDILSNLSNSDSDFYLFVNGYWRVDVKPSEQPRLASPFFKDVVNVSDGSGLLNISIGTKEANKDAGFLNGLEMMEVLSKSGSDYSNRSSSRVHIITGCAVAAAAASALVFSLLFMVFLKRRRSKKTKPEVEGTVWSPLPLHRGGSSDNRPISQYHNSPLRNLHLGLTIPFTDILSATNNFDEQLLIGKGGFGYVYKAILPDGTKAAIKRGKTGSGQGILEFQTEIQVLSRIRHRHLVSLTGYCEENSEMILVYEFMEKGTLKEHLYGSNLPSLTWKQRLEICIGAARGLDYLHSSGSEGAIIHRDVKSTNILLDEHNIAKVADFGLSKIHNQDESNISINIKGTFGYLDPEYLQTHKLTEKSDVYAFGVVLLEVLFARPAIDPYLPHEEVNLSEWVMFCKSKGTIDEILDPSLIGQIETNSLKKFMEIAEKCLKEYGDERPSMRDVIWDLEYVLQLQMMTNRREAHEEDSTAINSGGSLVAPRLMVSDSFSTNSIFQNGDESKNRFGFTDSSETRVFSQLKISDAR

binding [4]: binds
B3: LET1-FLAG (C-terminal FLAG-tagged LET1) (receptor, UniProt O22187 29-834)
chain: DTSTYTRPENFYVNCGSDSNVFYGGQTFVGDTNSSTNSVSFTNKGTEVINDQSSVAPEIYRTVRIFRHPSSYKFKLDSLGLHFVRLHFSVVFSRADLLTARFTVSATSGSNHHLKSFSPQNLTNTPRVEEFLLMMNSLEFEIRFVPDHSSLALINAIEVFSAPDDLEIPSASDKNLHTIYRLNVGGEKITPDNDTLGRTWLPDDDDFLYRKDSARNINSTQTPNYVGGLSSATDSTAPDFVYKTAKAMNRSSNEQVGMLMNVTWSFKVKSNHRHFIRIHFSDILSNLSNSDSDFYLFVNGYWRVDVKPSEQPRLASPFFKDVVNVSDGSGLLNISIGTKEANKDAGFLNGLEMMEVLSKSGSDYSNRSSSRVHIITGCAVAAAAASALVFSLLFMVFLKRRRSKKTKPEVEGTVWSPLPLHRGGSSDNRPISQYHNSPLRNLHLGLTIPFTDILSATNNFDEQLLIGKGGFGYVYKAILPDGTKAAIKRGKTGSGQGILEFQTEIQVLSRIRHRHLVSLTGYCEENSEMILVYEFMEKGTLKEHLYGSNLPSLTWKQRLEICIGAARGLDYLHSSGSEGAIIHRDVKSTNILLDEHNIAKVADFGLSKIHNQDESNISINIKGTFGYLDPEYLQTHKLTEKSDVYAFGVVLLEVLFARPAIDPYLPHEEVNLSEWVMFCKSKGTIDEILDPSLIGQIETNSLKKFMEIAEKCLKEYGDERPSMRDVIWDLEYVLQLQMMTNRREAHEEDSTAINSGGSLVAPRLMVSDSFSTNSIFQNGDESKNRFGFTDSSETRVFSQLKISDAR
